Data published in PubChem BioAssay AID1159614 (National Center for Advancing Translational Sciences (NCATS), 2016).
Screen size: about 45,000 compounds; about 65 (0.1%) were called active. Calls come from the whole dose curve; as a rule, active = well fitted activation curve with a large enough effect; inconclusive = small, poorly fitted or top-dose-only effect; inactive = no such curve, though single readings can be large or run the other way. The list shows a part of the results. Bridge positions count the residues as written; N and C are the ends. Square brackets hold non-standard residues; d marks the D form. Peptide text beside a SMILES is read from it. hArg = N=C(N)NCCCC[C@H](N)C(=O)O; Mpa = O=C(O)CCS

Target: Galactocerebrosidase (Homo sapiens) (UniProt P54803)
UniProt P54803, sequence (P54803 whole entry, looked up): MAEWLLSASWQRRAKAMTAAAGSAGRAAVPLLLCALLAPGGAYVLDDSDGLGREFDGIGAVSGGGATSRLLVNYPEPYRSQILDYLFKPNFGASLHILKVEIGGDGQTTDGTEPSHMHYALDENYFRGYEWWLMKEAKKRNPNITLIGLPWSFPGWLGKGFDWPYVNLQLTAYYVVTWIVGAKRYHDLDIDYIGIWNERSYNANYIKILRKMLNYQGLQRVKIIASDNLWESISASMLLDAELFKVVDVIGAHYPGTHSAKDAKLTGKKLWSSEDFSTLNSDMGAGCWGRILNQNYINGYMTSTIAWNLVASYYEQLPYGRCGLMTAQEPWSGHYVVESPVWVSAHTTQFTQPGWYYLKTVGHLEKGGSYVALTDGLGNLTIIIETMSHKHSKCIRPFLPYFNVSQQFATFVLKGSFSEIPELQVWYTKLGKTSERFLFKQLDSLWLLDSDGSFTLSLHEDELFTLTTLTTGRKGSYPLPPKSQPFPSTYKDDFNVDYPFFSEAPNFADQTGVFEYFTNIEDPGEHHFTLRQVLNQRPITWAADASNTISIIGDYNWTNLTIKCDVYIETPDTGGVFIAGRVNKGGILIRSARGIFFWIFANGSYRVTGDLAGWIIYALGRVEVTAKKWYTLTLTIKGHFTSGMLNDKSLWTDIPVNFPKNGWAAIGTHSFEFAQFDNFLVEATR
Assay: A Novel Cell-Based Assay to Identify Small Molecules for B -Galactocerebrosidase; note: 0% is about no effect; nearly all actives have a fitted effect of over 65% in size
Details: 145M-Twi-hGALC-G270D cells (Twitcher mouse brain line with human GALC G270D), HMU-beta-Gal fluorescence, 48 h; series mostly up to 57.5 µM; activation: at the top concentration
Summary of the method: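 Live 145M-Twi cells (Twitcher mouse brain-derived, GALC-null) stably expressing human GALC-G270D, with a wild-type GALC line, were compound-treated. Residual GALC activity was then read as fluorescence from 0.1 mM final HMU-β-gal at pH 5.2; higher signal means activation.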

activation, inactive:
COC(=O)c1ccc(OCC(O)Cn2cnc3cc(C)c(C)cc32)cc1 (centres undefined) -9.45%
Cc1ccc(CNC(=O)c2cnc(N(C)C)nc2)cc1 1.6%
Cc1cc(NC(=O)c2ccc(-c3ccc(Cl)cc3)o2)cc(-c2nc3ncccc3o2)c1O -5.71%
CCCCN(C)CCNC(=O)c1cc(=O)[nH]c2ccc(S(=O)(=O)N3CCCCCC3)cc12 -5.78%
Cc1ccc(NC(=O)CS(=O)(=O)c2nc(-c3ccc(C)cc3)cn2-c2ccc(C)cc2)cc1 -7.76%
Cc1nc(-n2nc(C)c(Cc3ccccc3Cl)c2C)sc1C(=O)N1CCCCC1C (centres undefined) -15.2%
COc1ccc(NC(=O)c2oc3ccccc3c2NC(=O)c2cc(=O)c3c(C)cc(C)cc3o2)cc1 -10.4%
Cc1ccc(NC(=O)c2ncn(-c3ccccc3)n2)cc1Cl -2.98%
COc1ccc(-c2nc(C(=O)Nc3cccc(C(C)=O)c3)nn2-c2ccc(Cl)cc2)cc1 12.2%
COc1ccc(OC)c(Nc2nc3ccccc3n3c(C)nnc23)c1 -8.83%
NC(=O)[C@@H]1CSSCCC(=O)N[C@@H](CCCCN=C(N)N)C(=O)NCC(=O)N[C@@H](CC(=O)O)C(=O)N[C@@H](Cc2c[nH]c3ccccc23)C(=O)N2CCC[C@H]2C(=O)N1 ([Mpa][hArg]GDWPC-NH2; disulfide 1-7) -13.3%
CCOc1ccccc1NC(=O)CC1C(=O)NCCN1C(=O)c1ccc(F)cc1 (centres undefined) -1.05%
O=C(Nc1cc(-c2nc3cc(Cl)ccc3o2)ccc1Cl)c1cccs1 0.633%
COc1ccc(-c2nc(CN3CCC(C(=O)NCCCN4CCN(c5ccccc5F)CC4)CC3)c(C)o2)cc1OC -9.75%
C#CC(C)(CC)NC(=O)Cn1nnc(-c2ccc(OCc3ccccc3F)cc2)n1 (centres undefined) -9.77%
COc1ccc(COC(=O)c2[nH]c3c(c2C)C(=O)CC(c2ccc(OC)c(OC)c2)C3)cc1 (centres undefined) -16.2%
COc1ccccc1-c1c(C)nn2c(N3CCN(c4cccc(Cl)c4)CC3)cc(C)nc12 -5.79%
Cc1c(NS(=O)(=O)c2cccc(C(=O)O)c2)c(=O)n(-c2ccccc2)n1C -15.6%
COc1ccc(OC)c(NC(=O)c2cc3c(s2)-c2ccccc2SC3)c1 -7.95%
CCC(=O)N1c2ccccc2CC1C(=O)NCc1ccccc1C (centres undefined) -21.3%
O=C(CSc1nnc(CNC(=O)c2c(F)cccc2Cl)o1)Nc1ccccc1F -16.1%
CC(=O)SC[C@@H](C)C(=O)N1CCC[C@H]1C(=O)N[C@@H](Cc1ccccc1)C(=O)O -15.6%
COCCCNC(=O)c1cc2n(n1)CCCN(Cc1ccc(C)cc1)C2=O 18.8%
CC[C@H](C)[C@H](N)C(=O)O -12.5%
Cc1ccc(C)c(NS(=O)(=O)c2ccc3c4c(cccc24)C(=O)N3)c1 -11.1%
COc1cccc(Cn2nnc3c(=O)[nH]c(C4CCCN(C(=O)c5ccc(C)cc5)C4)nc32)c1 (centres undefined) -1.67%
CNc1nc(Oc2ccc(=O)n(C)n2)nc(N2CCOCC2)n1 -15.4%
Cc1ccc(-n2ncc(C(=O)NC3CCCC3)c2C2CCN(C(=O)OC(C)(C)C)CC2)c(C)c1 -4.02%
CS(=O)(=O)c1ncc(N(Cc2ccco2)Cc2ccco2)c(C(=O)Nc2ccccc2Br)n1 -2.33%
CC1=C(C(=O)OCc2ccc(C)cc2)C(c2c(Cl)cccc2Cl)CC(=O)N1 (centres undefined) 2.35%
C=CCc1cccc2cc(C(=O)Nc3cccc(Cl)c3)c(=O)oc12 -15.4%
CCOC(=O)c1sc2ccccc2c1S(=O)(=O)Nc1cccc(C(F)(F)F)c1 -31.9%
Cc1cccc(C(=O)NCCc2sc(-c3ccccc3)nc2C)c1 -24.4%
CC(C)OCCCNC(=O)c1ccc2c(=O)n(CCc3ccccc3)c(=O)[nH]c2c1 -13.5%
Cc1oc(-c2cccc(Cl)c2)nc1CN1CCCC(C(=O)NCc2ccc(F)cc2)C1 (centres undefined) -11.7%
CCCCN(C)C(=O)C(Cc1ccccc1)NS(=O)(=O)c1ccc2c(c1)c(=O)n(C)c(=O)n2C (centres undefined) 21.5%
COc1ccc(-c2nnc(SCC(=O)Oc3c(C)cccc3C)o2)cc1OC -3.98%
Cc1coc2c1c(C)cc1oc(=O)cc(C)c12 -24.3%
Cc1ccccc1CNC(=O)c1ccc(-c2nc(CS(=O)(=O)c3ccccc3)c(C)o2)cc1 -3.53%
CCOC(=O)C1=C(CS(=O)(=O)c2ccc(Br)cc2)NC(=O)NC1c1ccccc1 (centres undefined) -15.2%
COC(=O)c1cc(NC(=O)Cn2nc(C)n3cccc3c2=O)cc(C(=O)OC)c1 -5.1%
CCC(C)NC(=O)c1ccc(-n2c(-c3ccccc3)cc3c2CCCC3)cc1 (centres undefined) -8.34%
Cc1ccc(-c2c(C(=O)NCc3ccccc3)oc(=O)c3ccccc23)cc1 -21.9%
COc1cc(NC(=O)c2cc(Cl)c(OC)c(Cl)c2)ccc1NC(=O)c1cc2ccccc2o1 -11.4%
CC(=O)c1c(C)oc2ccc(N(C(=O)Oc3ccccc3)S(=O)(=O)c3ccc(C(C)(C)C)cc3)cc12 -7.23%
COc1ccc(C)cc1NC(=O)CN(c1cc(C(F)(F)F)ccc1Cl)S(C)(=O)=O -7.08%
CCc1cccc(C)c1NC(=O)c1cc(C)nc2c1c(C)nn2-c1cccc(Cl)c1C -6.74%
CN1c2ccccc2-c2nc(SCC(=O)Nc3ccccc3C(F)(F)F)ncc2S1(=O)=O -4.97%
Cc1ccc(CN2CCCn3nc(C(=O)NCCc4ccc(Cl)cc4)cc3C2=O)cc1 -10.1%
COc1ccc2c(c1)-c1nc(NC(=O)c3cc(Cl)ccc3OC)sc1CC2 -19.1%
Cc1cc(OC(=O)c2cc(-c3ccc4c(c3)OCCO4)on2)ccc1Cl -9.26%
COc1ccccc1CNC(=O)CCn1c(=O)c2ccccc2n(CC(=O)Nc2ccc(C)cc2C)c1=O -13.1%
CCN(Cc1ccccc1)C(=O)Cn1c(=O)n(Cc2ccccc2)c(=O)c2c1c1cc(OC)ccc1n2C 5.48%
O=C(NCC(c1cccnc1)N1CCN(Cc2ccccc2)CC1)C(=O)Nc1ccc(Cl)cc1 (centres undefined) -13.3%
COc1ccc(C(CC(=O)Nc2ccc(C)c(C)c2)N2Cc3ccccc3C2=O)cc1OC (centres undefined) -5.44%
Cc1ccc(CSc2nc3ccc(NC(=O)C(C)C)cc3s2)cc1 -12.1%
Cc1nc(CC(=O)Nc2cccc(C)c2C)cs1 2.87%
CC(=O)c1cccc(S(=O)(=O)NCCc2csc3nc(-c4ccc(F)cc4)nn23)c1 -47.9%
Cc1ccc(CSCC(=O)N2CCN(c3ccc(F)cc3)CC2)cc1 -12.9%
CC(C)c1ccc(S(=O)(=O)c2nnn3c2nc(NC2CCCC2)c2sccc23)cc1 -4.51%
Cc1ccc2c(=O)cc(CSc3ccccc3)[nH]c2c1C -0.844%
COc1ccc(OC)c(NC(=O)c2c(NCc3ccc(C)o3)sc3c2CCC(C)C3)c1 (centres undefined) -37.8%
COc1ccc(C(=O)NCc2ccc3c(c2)CCN3C(=O)c2ccncc2)cc1 -25.7%
Cc1cccc(N(CC(=O)Nc2ccc(Br)cc2)S(C)(=O)=O)c1C -14.1%
COc1cccc(CNC(=O)c2ccc(Cn3c(SCc4ccccc4)nc4cccnc43)cc2)c1 -38.9%
COc1ccccc1Nc1cc(C(=O)NCCCN(C)c2ccccc2)c2ccccc2n1 -15.3%
COc1cc(Cl)ccc1Nc1ncc(C(=O)N2CCN(c3ccccc3OC)CC2)c2ccccc12 -13.3%
Cn1nccc1C(=O)NCc1ccc2c(c1)CCN2C(=O)c1ccc(F)cc1 -20.2%
Cc1ccc(C(=O)N2CCC(c3c[nH]c4ccccc34)(c3c[nH]c4ccccc34)CC2)cc1 -12.8%
CCCCN(CC)CCNC(=O)c1cc2c(-c3ccc(Cl)cc3)nn(C)c2s1 -9.56%
COc1cc(NC(=O)CCc2c(C)nc3nc(-c4cc(OC)cc(OC)c4)nn3c2C)cc(OC)c1 -2.73%
Cc1nc2ccccc2n1CC(O)COc1ccc(C(=O)O)cc1 (centres undefined) 10.5%
O=C(CSc1nc(-c2ccccc2)nc2c1CCCC2)c1ccc(F)cc1 -7.16%
Cc1ccc(S(=O)(=O)c2nc(-c3ccco3)oc2SC(C)c2ccccc2)cc1 (centres undefined) -25.9%
CCC(=O)N1c2ccc(S(=O)(=O)NCc3cccc(OC)c3)cc2CC1C (centres undefined) -10.8%
CCCCN(Cc1ccccc1)C(=O)c1oc(=O)c2ccccc2c1-c1ccc(C)cc1 1.06%
COc1ccccc1/C=C/c1nc(C#N)c(N2CCCCCC2)o1 6.5%
Cc1ccc(-n2c3nc(=O)n(C)c(=O)c-3cc3c(Cl)cccc32)c(C)c1 -8.8%
Cc1ccc(NS(=O)(=O)c2ccc(NC(=O)N3CCCC3)cc2)cc1C -13.5%
CCC(Sc1nnc(-c2ccc(OC)cc2)c(-c2ccc(OC)cc2)n1)C(=O)NC1CCCCC1 (centres undefined) -14.3%
CCn1c(C(=O)N2CCC(C(=O)NCCc3ccccc3)CC2)cc2sccc21 -9.6%
CC1CCCN(S(=O)(=O)c2ccc(NC(=O)c3nc(SC(C)C)ncc3Cl)cc2)C1 (centres undefined) -10%
COc1cccc(N2CC(NC(=O)/C=C\c3ccc4c(c3)OCO4)CC2=O)c1 (centres undefined) -12.6%
COc1ccc(-n2nc(C(=O)N3CCN(c4ccccc4OC)CC3)c3c4ccccc4n(C)c3c2=O)cc1 -13%
CCOC(=O)c1ccc(NC(=O)C(CC)Sc2nc3ncccc3[nH]2)cc1 (centres undefined) -7.64%
COc1ccc(N2CC(NC(=O)c3ccc(S(=O)(=O)N4CCCC4)cc3)CC2=O)cc1 (centres undefined) -1.94%
CCCCNS(=O)(=O)c1ccc2nc(NC(=O)c3cccnc3)sc2c1 -1.9%
C/C(=C(/OCCOc1ccc(Cl)cc1)c1ccc(Cl)cc1Cl)n1ccnc1 -11.5%
CCc1ccccc1NC(=O)CN1C(=O)CCc2cc(S(=O)(=O)N3CCCCC3)ccc21 3.99%
Cc1ccc(CNC(=O)c2ccc(CSCc3ccc(Cl)cc3)o2)cc1 -11.2%
Cn1c(=O)oc2cc(S(=O)(=O)N3CCCC(C(=O)Nc4ccc(Br)cc4F)C3)ccc21 (centres undefined) -3.08%
O=C(Nc1cc(C(F)(F)F)ccc1Cl)c1cc2nc(-c3ccc4c(c3)OCO4)cc(C(F)(F)F)n2n1 -16.7%
CCOc1ccccc1C(=O)Nc1c(NC)c2ccccc2oc1=O -8.46%
Cc1ccc(-n2ccnc(NCc3ccccc3)c2=O)cc1C -11.6%
